Assay results as given in PubChem BioAssay (Tox21).
Inconclusive means that the source gave no clear call. A potency beside an inconclusive call is a rough fit, not a confirmed value.

Key:
[1] = qHTS assay to identify aromatase inhibitors - cell viability counter screen (AID 743084); conditions: MCF-7 aro ERE viability, CellTiter-Fluor, 24 h; activity change, negative = cytotoxicity: at 70.3 µM (top of the series; calls come from the whole dose curve);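 note: cells stimulated with testosterone during compound exposure; nearly all actives have a fitted effect of over 55% in size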
[2] = qHTS assay to identify small molecule that activate the aryl hydrocarbon receptor (AhR) signaling pathway - cell viability counter screen (AID 743086); note: nearly all actives have a fitted effect of over 45% in size
Procedure, shortened: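 Cytotoxicity counter screen: CellTiter-Fluor signal (30 min, 37 C) in 4000 HepG2 cells/well carrying the DRE-luciferase reporter, following 24 h compound exposure at 37 C.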

[3] = target: Peroxisome proliferator-activated receptor gamma (Homo sapiens) (UniProt P37231); test: qHTS assay to identify small molecule agonists of the peroxisome proliferator-activated receptor gamma (PPARg) signaling pathway (AID 743094; active = well fitted activation curve with a large enough effect in the signal ratio in the repeat runs, not every such curve was filed as active; inconclusive = weak or mixed curves, or effect the other way; inactive = no such curve, though single readings can be large or run the other way; the % refers to the signal ratio; for activation: % is set by controls: 0 for no effect and ±100 for the full control effect); conditions: HEK293H PPARg-UAS-bla, beta-lactamase FRET ratio, 17 h; activation: at 57 µM (top of the series) unless noted
Procedure, shortened: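 Stably transfected HEK293H cells (GeneBLAzer PPARg UAS-bla) were incubated with test substances for 17 h at 37C after a 5 h pre-incubation; beta-lactamase activity was then detected by FRET substrate fluorescence.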

[4] = target: Peroxisome proliferator-activated receptor gamma (Homo sapiens) (UniProt P37231); test: qHTS assay to identify small molecule antagonists of the peroxisome proliferator-activated receptor gamma (PPARg) signaling pathway (AID 743191; calls by dose curve; note: nearly all actives have a fitted effect of over 30% in size); conditions: HEK293H PPARg-UAS-bla, beta-lactamase ratio, antagonist, 17 h; ratio activity, negative = inhibition: at 62.6 µM (top of the series) unless noted
Procedure, shortened: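 Beta-lactamase reporter under UAS control in HEK293H PPARg-bla cells; compound treatment 17 h at 37C. Read-out: fluorescence intensity after 1 h room-temperature incubation with LiveBLAzer B/G FRET substrate.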

[5] = qHTS assay to identify small molecule antagonists of the peroxisome proliferator-activated receptor gamma (PPARg) signaling pathway - cell viability counter screen (AID 743194); conditions: PPARg-bla HEK293H viability, CellTiter-Glo luminescence, 17 h, co-treated with 50 nM rosiglitazone; activity change, negative = cytotoxicity: at 62.6 µM (top of the series); note: nearly all actives have a fitted effect of over 55% in size
Procedure, shortened: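 Viability was measured as CellTiter-Glo luminescence in GeneBLAzer PPARg UAS-bla HEK293H cells. These cells had been exposed 17 h at 37 C to compounds together with rosiglitazone at 50 nM final, with the beta-lactamase readout taken in the same wells.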

[6] = qHTS assay for small molecule agonists of the antioxidant response element (ARE) signaling pathway (AID 743202; active = well fitted activation curve with a large enough effect in the signal ratio in the repeat runs, not every such curve was filed as active; inconclusive = weak or mixed curves, or effect the other way; inactive = no such curve, though single readings can be large or run the other way; the % refers to the signal ratio); conditions: HepG2 ARE-bla reporter, beta-lactamase FRET, 16 h; activation: at 73.3 µM (top of the series) unless noted
Procedure, shortened: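 Quantitative high-throughput format in HepG2 cells bearing an integrated ARE-beta-lactamase reporter. Compound exposure lasted 16 h at 37 C, and fluorescence was read 2 h after adding LiveBLAzer B/G substrate at room temperature.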

[7] = qHTS assay for small molecule agonists of the antioxidant response element (ARE) signaling pathway - cell viability counter screen (AID 743203; calls by dose curve; note: nearly all actives have a fitted effect of over 55% in size); conditions: ARE-bla HepG2 viability, CellTiter-Glo luminescence, 16 h; viability change, negative = cytotoxic: at 73.3 µM (top of the series)
Procedure, shortened: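 Cells (ARE-bla HepG2, 2,000/well) receive DMSO-dissolved compounds after a 5 hrs rest. Plates incubate 16 hrs at 37C/5% CO2. CellTiter-Glo luminescence is then recorded after 30 min at room temperature.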

[8] = qHTS assay for small molecule activators of the heat shock response signaling pathway - cell viability counter screen (AID 743209); conditions: HSE-bla HeLa viability, CellTiter-Glo luminescence, 5 h; activity change, negative = cytotoxicity: at 62.6 µM (top of the series); note: nearly all actives have a fitted effect of over 50% in size
Procedure, shortened: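 Quantitative HTS format, Tox21 10K library. HeLa cells carrying an HSE-driven beta-lactamase reporter were treated 5 h at 37 C, then assessed for viability by CellTiter-Glo luminescence.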

[9] = qHTS assay for small molecule activators of the heat shock response signaling pathway (AID 743210; active = well fitted activation curve with a large enough effect in the signal ratio in the repeat runs, with a control signal flat, not every such curve was filed as active; inconclusive = weak or mixed curves; the % refers to the signal ratio); conditions: HeLa HSE-bla reporter, beta-lactamase ratio, 5 h; activation: at 62.6 µM (top of the series)
Procedure, shortened: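 HeLa HSE-bla cells, overnight plating; cpd in DMSO 5 h, 37 C; LiveBLAzer B/G FRET substrate 2.5 h RT; fluorescence intensity read.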

[10] = qHTS assay to identify small molecule agonists of the peroxisome proliferator-activated receptor delta (PPARd) signaling pathway - cell viability counter screen (AID 743211); conditions: PPARd-bla HEK293H viability, CellTiter-Glo luminescence, 17 h; activity change, negative = cytotoxicity: at 62.6 µM (top of the series); note: nearly all actives have a fitted effect of over 55% in size
Procedure, shortened: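 qHTS cell viability: PPARd-bla HEK293H; 17 h cpd, 37C; CellTiter-Glo, luminescence at 30 min RT.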

[11] = target: Peroxisome proliferator-activated receptor delta (Homo sapiens) (UniProt Q03181); test: qHTS assay to identify small molecule agonists of the peroxisome proliferator-activated receptor delta (PPARd) signaling pathway (AID 743212; calls by dose curve); conditions: HEK293H PPARd-UAS-bla, beta-lactamase FRET ratio, 17 h; activation: at 62.6 µM (top of the series) unless noted
Procedure, shortened: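 HEK293H PPARd-bla cells; 5 h preincubation 37 C/5% CO2; compound (DMSO) 37 C; LiveBLAzer B/G FRET substrate 2 h RT; fluorescence intensity.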

[12] = qHTS assay to identify small molecule antagonists of the peroxisome proliferator-activated receptor delta (PPARd) signaling pathway - cell viability counter screen (AID 743213); conditions: PPARd-bla HEK293H viability, CellTiter-Glo luminescence, 17 h; viability change, negative = cytotoxic: at 62 µM (top of the series) unless noted; note: nearly all actives have a fitted effect of over 50% in size
Procedure, shortened: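 Cytotoxicity counter screen: CellTiter-Glo luminescence read 30 min after addition, in the same wells as the reporter assay. There, PPARd UAS-bla HEK293H cells (3000/well) were treated 17 h at 37 C with compound and 300 nM L165041.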

[13] = target: Peroxisome proliferator-activated receptor delta (Homo sapiens) (UniProt Q03181); test: qHTS assay to identify small molecule antagonists of the peroxisome proliferator-activated receptor delta (PPARd) signaling pathway (AID 743215; active = well fitted inhibition curve with a large enough effect in the signal ratio in the repeat runs, not every such curve was filed as active; inconclusive = weak or mixed curves, or effect the other way; inactive = no such curve, though single readings can be large or run the other way; the % refers to the signal ratio;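 note: cells stimulated with agonist L165041 at 300 nM final during compound exposure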); conditions: HEK293H PPARd-UAS-bla, beta-lactamase FRET ratio, antagonist, 17 h; ratio activity, negative = inhibition: at 62 µM (top of the series) unless noted
Procedure, shortened: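 Antagonist-mode beta-lactamase reporter screen: HEK293H cells with UAS-bla under PPARd control, stimulated by 300 nM L165041 (final) alongside test compound for 17 h at 37 C, then FRET fluorescence after 2 h substrate incubation.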

[14] = qHTS assay to identify small molecule agonists of the farnesoid-X-receptor (FXR) signaling pathway - cell viability counter screen (AID 743218); conditions: FXR-bla HEK293T viability, CellTiter-Glo luminescence, 16 h; viability change, negative = cytotoxic: at 62.6 µM (top of the series) unless noted; note: nearly all actives have a fitted effect of over 45% in size
Procedure, shortened: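 In GeneBLAzer FXR-UAS-bla HEK 293T cells, compounds act for 16 h at 37 C. Cell viability is then scored in the reporter wells by CellTiter-Glo, 30 min at RT, luminescence.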

[15] = qHTS assay to identify small molecule antagonists of the farnesoid-X-receptor (FXR) signaling pathway - cell viability counter screen (AID 743221; active = well fitted cell-killing curve with a large enough effect in the repeat runs, not every such curve was filed as active; inconclusive = weak or mixed curves, or effect the other way; inactive = no such curve, though single readings can be large or run the other way; note: nearly all actives have a fitted effect of over 50% in size); conditions: FXR-bla HEK293T viability, CellTiter-Glo luminescence, 16 h; activity change, negative = cytotoxicity: at 62.6 µM (top of the series)
Procedure, shortened: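 After a 5 h settling period, FXR-bla HEK 293T cells receive compound and chenodeoxycholic acid (50 uM final) and incubate 16 h at 37 C; CellTiter-Glo luminescence, read after 30 min at room temperature, reports cell viability.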

[16] = target: Vitamin D3 receptor (Homo sapiens) (UniProt P11473); test: qHTS assay to identify small molecule agonists of the vitamin D receptor (VDR) signaling pathway (AID 743222; calls by dose curve); conditions: HEK293T VDR-UAS-bla, beta-lactamase FRET ratio, 16 h; activation: at 63.5 µM (top of the series) unless noted
Procedure, shortened: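 Agonist activity measured in VDR-bla reporter cells. Exposure 16 h, 37C, 5% CO2; detection by B/G FRET substrate, 2 h RT.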

[17] = target: Vitamin D3 receptor (Homo sapiens) (UniProt P11473); test: qHTS assay to identify small molecule antagonists of the vitamin D receptor (VDR) signaling pathway (AID 743223; active = well fitted inhibition curve with a large enough effect in the signal ratio in the repeat runs, not every such curve was filed as active; inconclusive = weak or mixed curves, or effect the other way; inactive = no such curve, though single readings can be large or run the other way; the % refers to the signal ratio); conditions: VDR-UAS-bla HEK293T, beta-lactamase FRET ratio, 16 h; activity change, negative = inhibition: at 61 µM (top of the series) unless noted
Procedure, shortened: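 Reporter line VDR-bla; stimulus 1alpha,25-(OH)2 vitamin D3, 3 nM final; compound co-addition, 16 h 37C/5% CO2; LiveBLAzer B/G substrate 2 h RT; fluorescence intensity.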
Potency is the fitted concentration of half-maximal effect; tags give direction and shape of the fitted curve or compound fluorescence and quenching.

Sequence of UniProt P11473 (P11473 whole entry, looked up): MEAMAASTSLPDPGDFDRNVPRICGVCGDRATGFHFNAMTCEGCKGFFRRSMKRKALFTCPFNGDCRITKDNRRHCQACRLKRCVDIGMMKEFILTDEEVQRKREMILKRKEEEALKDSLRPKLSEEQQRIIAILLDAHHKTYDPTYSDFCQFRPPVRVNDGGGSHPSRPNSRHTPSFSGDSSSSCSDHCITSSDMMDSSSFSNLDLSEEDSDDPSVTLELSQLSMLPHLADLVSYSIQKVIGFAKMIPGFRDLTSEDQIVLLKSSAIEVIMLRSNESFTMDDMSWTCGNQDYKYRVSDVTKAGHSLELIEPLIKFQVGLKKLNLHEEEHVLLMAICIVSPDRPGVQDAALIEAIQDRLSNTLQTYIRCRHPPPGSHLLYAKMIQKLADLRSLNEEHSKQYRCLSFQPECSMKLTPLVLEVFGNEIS
Sequence of UniProt Q03181 (Q03181 whole entry, looked up): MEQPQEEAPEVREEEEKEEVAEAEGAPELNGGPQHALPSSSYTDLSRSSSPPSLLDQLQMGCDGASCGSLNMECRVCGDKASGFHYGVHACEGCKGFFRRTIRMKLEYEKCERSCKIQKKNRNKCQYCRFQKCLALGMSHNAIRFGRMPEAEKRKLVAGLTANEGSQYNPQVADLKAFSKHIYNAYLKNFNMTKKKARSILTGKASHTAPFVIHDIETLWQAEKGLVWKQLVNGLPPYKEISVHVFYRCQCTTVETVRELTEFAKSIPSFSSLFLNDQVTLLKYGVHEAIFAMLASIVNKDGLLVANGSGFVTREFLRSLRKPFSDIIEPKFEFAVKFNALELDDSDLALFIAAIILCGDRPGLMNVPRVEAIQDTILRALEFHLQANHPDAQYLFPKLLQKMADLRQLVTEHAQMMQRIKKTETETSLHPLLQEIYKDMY
Sequence of UniProt P37231 (P37231 whole entry, looked up): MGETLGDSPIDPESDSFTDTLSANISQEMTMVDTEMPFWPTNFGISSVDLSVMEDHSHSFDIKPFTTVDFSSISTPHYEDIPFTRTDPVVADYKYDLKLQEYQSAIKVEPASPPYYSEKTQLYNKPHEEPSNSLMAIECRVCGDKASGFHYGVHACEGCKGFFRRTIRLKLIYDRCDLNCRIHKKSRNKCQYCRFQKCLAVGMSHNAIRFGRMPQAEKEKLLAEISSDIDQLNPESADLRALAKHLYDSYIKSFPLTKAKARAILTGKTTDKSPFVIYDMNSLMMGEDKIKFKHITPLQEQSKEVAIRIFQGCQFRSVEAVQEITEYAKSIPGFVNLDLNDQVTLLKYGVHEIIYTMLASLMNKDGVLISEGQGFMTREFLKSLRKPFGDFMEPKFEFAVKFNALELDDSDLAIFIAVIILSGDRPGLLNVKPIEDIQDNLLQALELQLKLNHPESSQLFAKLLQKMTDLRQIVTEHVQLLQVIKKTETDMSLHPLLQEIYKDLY

CC[C@@]1(O)C(=O)OCc2c1cc1n(c2=O)Cc2cc3c(CN(C)C)c(O)ccc3nc2-1
inconclusive: Potency [1] 13.3 µM [rising, full curve] | Potency [2] 29.8 µM [rising, partial curve] | Potency [3] 23.9 µM [rising, partial curve] | Potency [4] 23.7 µM [rising, partial curve] | Potency [5] 26.6 µM [cytotoxic, partial curve, poor fit] | Potency [6] 23.7 µM | Potency [7] 2.11 µM [cytotoxic, full curve] | Potency [8] 6.68 µM [cytotoxic, full curve] | Potency [9] 22.8 µM | Potency [10] 8.41 µM [cytotoxic, partial curve, poor fit] | Potency [11] 11.9 µM [rising, partial curve] | Potency [12] 2.37 µM [cytotoxic, full curve, poor fit] | Potency [13] 23.7 µM [rising, partial curve] | Potency [14] 5.96 µM [cytotoxic, partial curve, poor fit] | Potency [15] 23.7 µM [falling, partial curve, poor fit] | Potency [16] 26.6 µM [fluorescent, partial curve] | Potency [17] 21.3 µM [fluorescent, partial curve]

CC(C)C(C)(C)C(C)(C)C(C)(C)S
inconclusive: Potency [1] 68.6 µM [cytotoxic] | Potency [2] 13.7 µM [rising, partial curve, poor fit] | activation [3] 2.58% | Potency [4] 61.6 µM | Potency [5] 13.8 µM | Potency [6] 61.1 µM | Potency [10] 0.0776 µM [cytotoxic, full curve, poor fit] | Potency [11] 0.0062 µM [rising, full curve, poor fit] | Potency [12] 12.3 µM [cytotoxic, single point] | Potency [13] 54.9 µM [fluorescent] | Potency [14] 0.692 µM [rising, full curve, poor fit] | Potency [15] 1.55 µM [falling, full curve, poor fit] | Potency [16] 6.11 µM [fluorescent, full curve, poor fit] | Potency [17] 0.0055 µM [fluorescent, full curve, poor fit]
